# Data published in PubChem BioAssay AID2101 (National Center for Advancing Translational Sciences (NCATS), 2009).
# In all, about 330,000 compounds went through this assay and about 300 (0.091%) were called active. This list was built around the results that the source calls inconclusive (neither active nor inactive); the mix of calls is not that of the screen. The call rests on the fitted dose curve; in most records, active means well fitted inhibition curve with a large enough effect; inconclusive means small, poorly fitted or top-dose-only effect, or effect the other way, or another doubt; inactive means no such curve, though single readings can be large or run the other way. Potencies of inconclusive entries are left out as doubtful fits.
# Target: Lysosomal acid glucosylceramidase (Homo sapiens) (UniProt P04062)
# Experiment: qHTS Assay for Inhibitors and Activators of N370S glucocerebrosidase as a Potential Chaperone Treatment of Gaucher Disease;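 on activity change, negative = inhibition: 0% = full enzyme activity and -100% = no enzyme basal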
# Conditions: N370S GC spleen homogenate, 4MU-glucoside fluorescence; activity change, negative = inhibition: at 59.4 µM (top of the series) unless noted
# Potency means the concentration at half of the fitted maximal effect.
SMILES,Potency,"activity change, negative = inhibition"
COc1ccc2ccccc2c1/C=N\NC(=O)c1ccc(C)s1,"inconclusive [activator, partial curve]",–
CC(=O)n1cc(N(C(=O)CCl)c2ccccc2)c2ccccc21,"inconclusive [inhibitor, partial curve]",–
CCOC(=O)c1c(NC(=O)C2COc3ccccc3O2)sc(C)c1C (centres undefined),"inconclusive [activator, partial curve]",–
N#Cc1c(C(F)(F)F)cc(C2CC2)[nH]c1=O,"inconclusive [activator, partial curve]",–
Cn1ncc2c(Nc3ccc4ccccc4c3)ncnc21,"inconclusive [inhibitor, single point]",–
c1ccc2c(c1)OCC(c1nnc3sc(-c4ccc5c(c4)OCO5)nn13)O2 (centres undefined),–,inactive: 0.0408%
Cc1ccc(-n2cccc2/C=C2\C(=N)N3N=C(c4ccco4)SC3=NC2=O)cc1,–,inconclusive: 21.4% [activator]
CCC(C)C(NS(=O)(=O)c1ccc(C)cc1)C(=O)Oc1ccc2c3c(c(=O)oc2c1)CCC3 (centres undefined),"inconclusive [activator, partial curve]",–
Cc1ccccc1N(CC(=O)NC1CCCC1)C(=O)C1(C)CC(=O)N=C2C=CC(Cl)=CN21 (centres undefined),"inconclusive [activator, partial curve]",–
CCN1CCN(CCNC(=O)c2ccc3c(c2)N(Cc2ccc(F)cc2)C(=O)/C(=C/c2ccccc2)S3)CC1,"inconclusive [inhibitor, single point]",–
CCCCC(C(=O)NC(=O)NCc1ccccc1)N1C(=O)c2ccccc2C1=O (centres undefined),"inconclusive [activator, partial curve]",–
C#CCOCCOCCOCCNc1nc(N2CCN(C(=O)CCCCCCCCCCNC(=O)Cn3cc(CCCCCN)nn3)CC2)nc(N2CCN(C(=O)CCCCCCCCCCNC(=O)[C@@H](CCSC)n3cc(CCO)nn3)CC2)n1,"inconclusive [inhibitor, partial curve]",–
CC(C)OC(=O)c1ccc(NC(=O)CSc2nc3ncccc3[nH]2)cc1,"inconclusive [inhibitor, partial curve]",–
Cc1ccc(OCCCCNC2CCCC(C)C2C)c(C)c1 (centres undefined),"inconclusive [inhibitor, single point]",–
Cc1[nH]c(/C=C2\C(=O)Nc3ccc(S(=O)(=O)N(C)c4cccc(Cl)c4)cc32)c(C)c1C(=O)N1CCN(C)CC1,"inconclusive [inhibitor, partial curve]",–
CN(C)CCn1c(SCc2ccccc2C#N)nc2c(sc3ccccc32)c1=O,"inconclusive [activator, single point]",–
CC(C)(C)c1ccc(/C=C(\C#N)C(=O)NCCN2CCOCC2)cc1,"inconclusive [inhibitor, partial curve]",–
Cc1cc(Nc2ccc(Cl)cc2)nc(NCc2ccccc2)n1,active: 22.4 µM,–
CCCCn1c(N)c(S(=O)(=O)c2ccc(C)cc2)c2nc3ccccc3nc21,"inconclusive [activator, partial curve]",–
CCCC[C@H]1C[C@@H]1[C@@H]1N(P(=O)(c2ccccc2)c2ccccc2)C[C@@](O)(c2ccccc2)CC12CC2,"inconclusive [activator, partial curve]",–
Cc1ccc(NC(=O)CNC2CCS(=O)(=O)C2)cc1C (centres undefined),"inconclusive [activator, partial curve]",–
O=C(NCCN1CCCCC1)c1ccc(Oc2cc(Cl)cc(Cl)c2)o1,"inconclusive [inhibitor, single point]",–

SMILES,Potency,"activity change, negative = inhibition"
CCOC(=O)N1CCN([N+]([O-])=NOc2cc(O/N=[N+](\[O-])N(CC)CC)c([N+](=O)[O-])cc2[N+](=O)[O-])CC1,–,inactive: -4.78%
COc1ccc(C(=O)Oc2ccc3ccc(=O)oc3c2)cc1OC,"inconclusive [activator, partial curve]",–
O=C(C1CC1)N1CCc2cc(S(=O)(=O)N3CCN(c4ccccc4)CC3)ccc21,"inconclusive [inhibitor, single point]",–
COc1ccc(-c2oc3ccccc3c2C(=O)OCc2ccc(O)cc2)cc1,"inconclusive [activator, single point]",–
O=c1[nH]c2ccccc2nc1/C=C(\O)c1cccs1,–,inactive: -11.7%
O=C(CSc1ncccc1-c1nc2ccccc2[nH]1)N1CCN(c2ccccc2F)CC1,"inconclusive [activator, single point]",–
Cc1ccc(N(C(=O)c2snc(C(N)=O)c2N)C(C(=O)NCC2CCCO2)c2ccc(C)o2)c(C)c1 (centres undefined),"inconclusive [activator, partial curve, poor fit]",–
CCCC(C)NC(=O)c1nc(-c2ccccc2)n(-c2ccccc2)n1 (centres undefined),"inconclusive [activator, partial curve]",–
O=C(NCCn1ccc2ccccc21)c1ccc2c(c1)OCO2,–,inactive: -0.133%
CCOC(=O)c1c(NC(=O)CSc2nnc(-c3c[nH]c4ccccc34)n2CC)sc2c1CCCC2,"inconclusive [activator, partial curve]",–
CC(=O)c1c(C)[nH]c(C(=O)N(C)CC(=O)Nc2ccc(Cl)c(C(F)(F)F)c2)c1C,"inconclusive [inhibitor, single point]",–
Cc1cc(C)nc(NC(=O)Nc2ccc3c(c2)OCO3)c1,"inconclusive [activator, full curve]",–
Cc1cccc(NC(=O)Nc2cc(C)cc(C)n2)c1,–,inactive: 3.87%
COc1ccc(Nc2ccc(S(=O)(=O)N3CCCCCC3)cc2[N+](=O)[O-])cc1,"inconclusive [activator, partial curve]",–
CC(C)=CCC/C(C)=C\COc1c2ccoc2cc2oc(=O)ccc12,"inconclusive [activator, partial curve]",–
COc1ccc(OC)c2[nH]c(=O)c(CCNC(=O)c3cc4ccccc4o3)cc12,"inconclusive [activator, partial curve]",–
CCCC(=O)OCCNc1cc(Sc2nccn2C)c2nonc2c1[N+](=O)[O-],–,inactive: -17.5%
Cc1cc([N+](=O)[O-])ccc1NC(=O)c1cc2ccccc2o1,–,inactive: 0.0201%
O=C(NC1CCCCCCC1)C1c2ccccc2C(=O)N1Cc1cccs1 (centres undefined),"inconclusive [activator, partial curve]",–
N=c1oc2cc(O)ccc2cc1C(=O)Nc1ccccn1,"inconclusive [activator, partial curve]",–
Cc1cc2nnc(SC(C)C)n2c2ccccc12,"inconclusive [activator, partial curve, poor fit]",–
CCOC(=O)c1c(NCC2CCCO2)c2ccccc2[nH]c1=O (centres undefined),"inconclusive [activator, partial curve]",–

SMILES,Potency,"activity change, negative = inhibition"
Nc1c(C(=O)c2ccc(Br)s2)oc2ccccc12,–,inactive: 17%
Cc1ccccc1OCC(=O)N(Cc1nc(-c2ccccc2)no1)C(C)C,"inconclusive [activator, partial curve]",–
O=C(Nc1ccccc1)C1=C[C@@H](c2ccccc2)C[C@@H](OCc2ccc(CO)cc2)O1,"inconclusive [activator, single point]",–
CSc1nc2ccccc2n1CC(=O)Nc1cc(C(F)(F)F)ccc1N1CCOCC1,"inconclusive [activator, single point]",–
CC(C)(C)C(=O)Nc1ccc(C(=O)Nc2cccc(Oc3ccc(C(=O)O)c(C(=O)O)c3)c2)cc1,"inconclusive [inhibitor, partial curve]",–
CSc1ccccc1NC(=O)COC(=O)Cc1cccs1,–,inactive: -3.26%
CCCCOc1nc(N)nc(-c2ccccc2)n1,"inconclusive [inhibitor, partial curve]",–
Cc1c(CC(=O)N2CCC(C(=O)O)CC2)c(=O)oc2cc3c(cc12)CCC1(CCCCC1)O3,"inconclusive [activator, partial curve]",–
CCOP(=O)(OCC)c1nc(/C=C/c2ccccc2)oc1NCc1ccc(OC)cc1,"inconclusive [activator, partial curve]",–
O=C1COCCN1,–,inactive: 1.7%
N/C(COc1ccc(F)cc1)=N\NC(=O)c1cccnc1Oc1ccccc1,"inconclusive [inhibitor, full curve, poor fit]",–
O=C(NC1CCCN(Cc2ccc(Cl)cc2)C1)c1cnc2ccccn2c1=O (centres undefined),"inconclusive [activator, single point]",–
COc1ccc(OCc2nc(N)nc(Nc3ccc(C)cc3)n2)cc1,–,inactive: 6.25%
C=C(C)C1CC=C(C)C(OC(C)=O)C1 (centres undefined),–,inactive: 12.7%
CCN1CCN(c2cc(C)c3cc(NC(=O)c4ccc(C)c(C)c4)ccc3n2)CC1,"inconclusive [inhibitor, full curve, poor fit]",–
CCOC(=O)/C=C/C(=O)Nc1ccc(S(=O)(=O)N2CCCCCC2)cc1,"inconclusive [inhibitor, single point]",–
CCC(C)[C@H]1CNCCN1CCc1cc(C(F)(F)F)cc(C(F)(F)F)c1 (some centres undefined),"inconclusive [inhibitor, single point]",–
COC1CCCCC1NS(=O)(=O)c1ccccc1 (centres undefined),–,inactive: -3.78%
CCC1Sc2ccc(S(=O)(=O)CCC(=O)Nc3ccccc3Cl)cc2NC1=O (centres undefined),"inconclusive [inhibitor, single point]",–
COc1ccc(-c2noc(CSc3nc(N)c(-c4ccccc4)c(=O)[nH]3)n2)cc1OC,"inconclusive [activator, partial curve]",–
